# Test results as given in patent publication US11000038B2, “Pyridone compounds and agricultural and horticultural fungicides containing the same as active ingredients” (priority 2017, dated 2021).
# Tests used:
# [1] = test system: rice blast fungi (Magnaporthe grisea); type: in vivo; conditions: spray treatment of rice plants; control value=100{1-(n/3)}
# [2] = test system: cucumber anthracnose fungi (Colletotrichum orbiculare); assay: Test Example H: cucumber anthracnose, spray treatment of cucumber plants; conditions: 250 ppm spray, 2.5 ml/pot, cucumber Sagami Hanjiro; 6 to 10 days from inoculation
# [3] = test system: tomato late blight fungi (Phytophthora infestans); type: in vivo; conditions: spray treatment of tomato plants; control value=100{1-(n/3)}
SMILES,Test A control value class (rice blast) [1],Test H control value class (cucumber anthracnose) [2],Test F control value class (tomato late blight) [3]
O=c1c(Cl)cn(-c2ccccc2Cl)c(-c2c(F)cc(F)cc2F)c1Br [Compound 3],H (H shows the control value of more than 50%),H (H shows the control value of more than 50%),L (L shows the control value of 50% or less)
CCCn1cc(Cl)c(=O)c(Cl)c1-c1c(F)cc(F)cc1F [Compound 6],H (H shows the control value of more than 50%),L (L shows the control value of 50% or less),L (L shows the control value of 50% or less)
CCCn1cc(Cl)c(=O)c(Br)c1-c1c(F)cc(F)cc1F [Compound 7],H (H shows the control value of more than 50%),H (H shows the control value of more than 50%),L (L shows the control value of 50% or less)
O=c1c(Br)cn(-c2ccccc2)c(-c2c(F)cc(F)cc2F)c1Br [Compound 8],H (H shows the control value of more than 50%),H (H shows the control value of more than 50%),L (L shows the control value of 50% or less)
O=c1c(Br)cn(-c2ccccc2)c(-c2c(F)cc(F)cc2F)c1Cl [Compound 9],H (H shows the control value of more than 50%),H (H shows the control value of more than 50%),L (L shows the control value of 50% or less)
CC(C)n1cc(Cl)c(=O)c(Cl)c1-c1c(F)cc(F)cc1F [Compound 10],H (H shows the control value of more than 50%),H (H shows the control value of more than 50%),L (L shows the control value of 50% or less)
CC(C)n1cc(Cl)c(=O)c(Br)c1-c1c(F)cc(F)cc1F [Compound 11],H (H shows the control value of more than 50%),H (H shows the control value of more than 50%),L (L shows the control value of 50% or less)
CC(C)n1cc(Br)c(=O)c(Br)c1-c1c(F)cc(F)cc1F [Compound 12],H (H shows the control value of more than 50%),H (H shows the control value of more than 50%),L (L shows the control value of 50% or less)
CC(C)n1cc(Br)c(=O)c(Cl)c1-c1c(F)cc(F)cc1F [Compound 13],L (L shows the control value of 50% or less),H (H shows the control value of more than 50%),L (L shows the control value of 50% or less)
O=c1c(Cl)cn(-c2ccccc2)c(-c2c(F)cc(F)cc2F)c1Cl [Compound 14],H (H shows the control value of more than 50%),H (H shows the control value of more than 50%),L (L shows the control value of 50% or less)
O=c1c(Cl)cn(-c2ccccc2)c(-c2c(F)cc(F)cc2F)c1Br [Compound 15],H (H shows the control value of more than 50%),H (H shows the control value of more than 50%),L (L shows the control value of 50% or less)
COc1cc(F)c(-c2c(Cl)c(=O)c(Cl)cn2-c2ccccc2)c(F)c1 [Compound 16],H (H shows the control value of more than 50%),H (H shows the control value of more than 50%),L (L shows the control value of 50% or less)
COc1cc(F)c(-c2c(Br)c(=O)c(Cl)cn2-c2ccccc2)c(F)c1 [Compound 17],H (H shows the control value of more than 50%),H (H shows the control value of more than 50%),L (L shows the control value of 50% or less)
COc1cc(F)c(-c2c(Br)c(=O)c(Br)cn2C(C)C)c(F)c1 [Compound 18],H (H shows the control value of more than 50%),H (H shows the control value of more than 50%),L (L shows the control value of 50% or less)
COc1cc(F)c(-c2c(Cl)c(=O)c(Br)cn2C(C)C)c(F)c1 [Compound 19],H (H shows the control value of more than 50%),H (H shows the control value of more than 50%),L (L shows the control value of 50% or less)
O=c1c(Br)cn(-c2ccccc2F)c(-c2c(F)cc(F)cc2F)c1Cl [Compound 20],H (H shows the control value of more than 50%),H (H shows the control value of more than 50%),L (L shows the control value of 50% or less)

SMILES,Test A control value class (rice blast) [1],Test H control value class (cucumber anthracnose) [2],Test F control value class (tomato late blight) [3]
COc1cc(F)c(-c2c(Cl)c(=O)c(Br)cn2-c2ccccc2F)c(F)c1 [Compound 21],H (H shows the control value of more than 50%),H (H shows the control value of more than 50%),L (L shows the control value of 50% or less)
O=c1c(Br)cn(-c2ccccc2F)c(-c2c(F)cc(F)cc2F)c1Br [Compound 22],H (H shows the control value of more than 50%),H (H shows the control value of more than 50%),L (L shows the control value of 50% or less)
COc1cc(F)c(-c2c(Br)c(=O)c(Br)cn2-c2ccccc2F)c(F)c1 [Compound 23],H (H shows the control value of more than 50%),H (H shows the control value of more than 50%),L (L shows the control value of 50% or less)
O=c1c(Cl)cn(-c2ccccc2F)c(-c2c(F)cc(F)cc2F)c1Cl [Compound 24],H (H shows the control value of more than 50%),H (H shows the control value of more than 50%),L (L shows the control value of 50% or less)
O=c1c(Cl)cn(C2CCCCC2)c(-c2c(F)cc(F)cc2F)c1Br [Compound 25],H (H shows the control value of more than 50%),H (H shows the control value of more than 50%),L (L shows the control value of 50% or less)
O=c1c(Cl)cn(C2CCCCC2)c(-c2c(F)cc(F)cc2F)c1Cl [Compound 26],H (H shows the control value of more than 50%),L (L shows the control value of 50% or less),L (L shows the control value of 50% or less)
COc1cc(F)c(-c2c(Br)c(=O)c(Cl)cn2C2CCCCC2)c(F)c1 [Compound 27],H (H shows the control value of more than 50%),H (H shows the control value of more than 50%),L (L shows the control value of 50% or less)
COc1cc(F)c(-c2c(Cl)c(=O)c(Cl)cn2C2CCCCC2)c(F)c1 [Compound 28],H (H shows the control value of more than 50%),H (H shows the control value of more than 50%),L (L shows the control value of 50% or less)
O=c1c(Br)cn(C2CCCCC2)c(-c2c(F)cc(F)cc2F)c1Cl [Compound 29],H (H shows the control value of more than 50%),H (H shows the control value of more than 50%),L (L shows the control value of 50% or less)
O=c1c(Br)cn(C2CCCCC2)c(-c2c(F)cc(F)cc2F)c1Br [Compound 30],H (H shows the control value of more than 50%),H (H shows the control value of more than 50%),L (L shows the control value of 50% or less)
O=c1c(Cl)cn(-c2ccccc2F)c(-c2c(F)cc(F)cc2F)c1Br [Compound 31],H (H shows the control value of more than 50%),H (H shows the control value of more than 50%),L (L shows the control value of 50% or less)
COc1cc(F)c(-c2c(Cl)c(=O)c(Cl)cn2-c2ccccc2F)c(F)c1 [Compound 32],H (H shows the control value of more than 50%),H (H shows the control value of more than 50%),L (L shows the control value of 50% or less)
COc1cc(F)c(-c2c(Br)c(=O)c(Cl)cn2-c2ccccc2F)c(F)c1 [Compound 33],H (H shows the control value of more than 50%),H (H shows the control value of more than 50%),L (L shows the control value of 50% or less)
COc1cc(F)c(-c2c(Br)c(=O)c(Cl)cn2Cc2ccccc2Cl)c(F)c1 [Compound 88],H (H shows the control value of more than 50%),H (H shows the control value of more than 50%),
Cc1c(-c2c(F)cc(F)cc2F)n(C(C)C(C)C)cc(C(F)(F)F)c1=O (stereo not shown) [Compound 157],H (H shows the control value of more than 50%),L (L shows the control value of 50% or less),
